The text below walks through data of ChEMBL document CHEMBL5308541, “MAIP: An Open-Source Tool to Enrich High-Throughput Screening Output and Identify Novel, Druglike Molecules with Antimalarial Activity” (ACS Med Chem Lett, 2023).

The structures appear in SMILES notation. Screen size: about 150,000 compounds; about 540 (0.36%) showed an effect of 50% or more. The list shows a part of the results.

The experiment concerns Plasmodium falciparum. The experiment can be described thus: Primary screen in NF54 nanoGlo assay, in single point, at 2uM, 72h; a lower Z score goes with more inhibition. In kind it is functional, Erythrocyte. As to conditions: timepoint 72 hour.
Consider `O=C(NCc1cnn2ccccc12)N1CCOC2(CCOCC2)CC1`, for which the “% Inhibition” value is on record as -3% and the Z score was 0.4.
The like results for `COc1cccc2[nH]cc(CCN[C@H]3CCCNc4ccccc43)c12` were, in that order, -3% and 0.48.
Regarding `CCn1ccnc1[C@@H]1CCCCN1C(=O)NCc1cnc(C)s1`, the “% Inhibition” value is -10% and the Z score is 1.69.
The like results for `CC1([C@H]2CCCN(c3nnnn3CCc3ccco3)C2)OCCO1` were, in that order, -11% and 2.01.
For `CC1NCCOC1c1ccc(-c2cnc3[nH]ccc3c2)cc1` (centres undefined), in that order: 4% and -0.81.
For `O=C(NC1CC1)c1ccnc(N2CC[C@@]3(CCCN(CCC4CCCCC4)C3)C2)c1`, in that order: -11% and 1.94.
Consider `CCO[C@@H](C)c1ccc(-c2n[nH]c(OC)n2)cc1`, for which the “% Inhibition” value is recorded as -3% and the Z score is given as 0.46.
For `COc1ccc2oc(-c3noc(C4(c5ccccc5)CC4)n3)c(C)c2c1`, in that order: 1% and -0.09.
The like results for `CCn1ccc(CN2CC3COCC2CN(Cc2ccc4[nH]ccc4c2)C3)n1` (centres undefined) were, in that order, 7% and -1.08.
For `c1cncc(-c2ccnc(N3CCCO[C@@H](CN4CCOCC4)C3)n2)c1`, in that order: 2% and -0.28.
As for `CC1CCN(c2ccc(C(=O)NC3CCN(C4CCN(C)CC4)CC3)cn2)CC1`, the “% Inhibition” value is recorded as 26% and the Z score was -3.91.
The like results for `CCN(CCCN1CCOCC1)c1ccc2[nH]ccc2c1` were, in that order, 3% and -0.62.
The like results for `Cc1ccc(CN(CCCO)C(=O)[C@@H]2C[C@@H](O)CN2)cc1` were, in that order, -8% and 1.72.
As to `Cc1cc(Cl)cc(Cl)c1CNC(=O)NCC1CCNCC1`, the “% Inhibition” value is recorded as -8% and the Z score came out at 1.32.
For `COc1ccc(CN2CCN(C3CCN(c4ccc(F)cc4C)CC3)CC2=O)cc1`, in that order: -3% and 0.5.
The like results for `Cc1nc(-c2cccc(-c3ccc(C(=O)NC[C@@H]4CCCN4)cc3)c2)no1` were, in that order, 0% and 0.1.
For `CCN1CCN(CCNC(=O)CN(C)c2nn3c(NC(C)(C)C)c(-c4cccc(F)c4)nc3s2)CC1`, in that order: -8% and 1.42.
For the compound `CN=C(NC1CC1C)N1CCC(C)(C)C1` (centres undefined), the “% Inhibition” value was -5% and the Z score was 1.03.
Consider `CC(C)c1cc(C(=O)N2CCN(c3nsc4ccccc34)CC2)nc(N)n1`, for which the “% Inhibition” value is listed as -3% and the Z score worked out at 0.67.
Turning to `CC(C)OCc1cccc(CNC2CCN3CCCC3C2)c1` (centres undefined), the “% Inhibition” value was found to be 0% and the Z score is -0.08.
The like results for `C[C@@H](CNC(=O)c1cccc(-c2ccc3c(=O)[nH]ccc3c2)c1)N1CCCC1` were, in that order, -10% and 1.7.
Take `O=c1[nH]c2ccc(Nc3nnc(-c4ccc5c(c4)OCO5)o3)cc2[nH]1`: the “% Inhibition” value is given as -11% and the Z score was determined as 2.03.
For `Cc1nc(CCNC(=O)[C@H](C)Oc2ccc3c(c2)OCO3)nc2c1CCC2`, in that order: 0% and -0.07.
On to `N#CC1(NC(=O)c2ccc(-n3ccnn3)cc2)CCOCC1`, for which the “% Inhibition” value is -1% and the Z score was 0.18.
For the compound `NC(=O)c1ccccc1N1CCC[C@H](NCc2cccc3[nH]ccc23)C1`, the “% Inhibition” value is -2% and the Z score is reported as 0.38.
For `N#Cc1cccc(NCCCN2CCC(O)CC2)n1`, in that order: -3% and 0.52.
The like results for `CCCCN1CCCC[C@@H]1CNc1nn2c(=O)cc(-c3ccccc3)nc2s1` were, in that order, 10% and -2.02.
The like results for `NC(=O)[C@]1(O)CCN(c2ccnc3ccc(Oc4ccccc4)cc23)C1` were, in that order, 38% and -8.24.
As for `CN(C)c1nsc(/C=C/C2CCCCC2)n1`, the “% Inhibition” value is -21% and the Z score came out at 3.16.
`NC1CCC(NC(=O)c2ccc(-c3ccc4occc4c3)cc2)C1` (centres undefined): the “% Inhibition” value is given as 7% and the Z score is reported as -1.46.
For `N#Cc1cnc(N2CCC(c3c[nH]c4cc(F)ccc34)CC2)cn1`, in that order: 4% and -0.72.
For `CCCCNCc1[nH]c2ccccc2c1Cl`, the “% Inhibition” value is reported as -4% and the Z score is 0.75.
For `CCN1CCN(C2(CNc3oc(-c4ccc(Cl)cc4)nc3C#N)CCCCC2)CC1`, in that order: 6% and -0.98.
The like results for `CC1(C)NC(=O)N(C[C@H](O)CN2CCN(c3nsc4ccccc34)CC2)C1=O` were, in that order, -2% and 0.39.
Take `CCC1NCCC1NS(=O)(=O)C1CC1` (centres undefined): the “% Inhibition” value is 5% and the Z score was -1.04.
For `CC(C)C1N(C)CC12C[C@@H](O)[C@H](NCc1ccc3occc3c1)C2` (some centres undefined), in that order: -1% and 0.09.
For `COc1ccc(OC)c2[nH]c(C(=O)Nc3cccc(OCCN4CCOCC4)c3)cc12`, in that order: -3% and 0.48.
Regarding `CCN1CCN(C(C)(C)CNc2ncc(F)c(NC)n2)CC1`, the “% Inhibition” value is recorded as 2% and the Z score is listed as -0.38.
For `CC(CN1CCOCC1)N1CCCC(Oc2ccc(Cl)cn2)C1` (centres undefined), in that order: 5% and -0.95.
For the compound `c1cn2nc(N[C@H]3CCN(CC4CCOCC4)C3)ccc2n1`, the “% Inhibition” value is -4% and the Z score turned out to be 0.57.
Turning to `Cc1cc(N2CCC(NC(=O)N3CCC(N4CCCC4)CC3)CC2)nc(C)n1`, the “% Inhibition” value came to 1% and the Z score was -0.17.
The like results for `COc1ccc2nc(C=Cc3cccc(F)c3)sc2c1` were, in that order, -13% and 2.01.
